In patent EP1506972A1 (Genentech Inc., dated 2005):

T1: human IGFBP-1 (human, UniProt P08833 26-259)
T1 construct: Secreted recombinant protein
T1 sequence (looked up): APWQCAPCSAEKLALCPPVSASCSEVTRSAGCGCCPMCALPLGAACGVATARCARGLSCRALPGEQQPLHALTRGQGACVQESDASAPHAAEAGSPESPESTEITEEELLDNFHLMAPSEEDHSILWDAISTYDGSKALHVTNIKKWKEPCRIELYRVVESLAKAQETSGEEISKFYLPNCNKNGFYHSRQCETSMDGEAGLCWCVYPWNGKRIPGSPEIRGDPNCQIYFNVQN


Assays:
[1] = target: T2, recombinant human IGFBP-3 (human, UniProt P17936); assay: BIAcore kinetics, IGF variant immobilised, IGFBP-3 injected
T2 construct: Secreted recombinant protein

[2] = target: T2, recombinant human IGFBP-3; assay: BIAcore
[3] = target: T1, human IGFBP-1; assay: BIAcore
[4] = target: IGF type I receptor (UniProt P08069 31-1367, limits assumed); assay: cell-based or functional assay
UniProt P08069, sequence (P08069 31-1367 limits assumed): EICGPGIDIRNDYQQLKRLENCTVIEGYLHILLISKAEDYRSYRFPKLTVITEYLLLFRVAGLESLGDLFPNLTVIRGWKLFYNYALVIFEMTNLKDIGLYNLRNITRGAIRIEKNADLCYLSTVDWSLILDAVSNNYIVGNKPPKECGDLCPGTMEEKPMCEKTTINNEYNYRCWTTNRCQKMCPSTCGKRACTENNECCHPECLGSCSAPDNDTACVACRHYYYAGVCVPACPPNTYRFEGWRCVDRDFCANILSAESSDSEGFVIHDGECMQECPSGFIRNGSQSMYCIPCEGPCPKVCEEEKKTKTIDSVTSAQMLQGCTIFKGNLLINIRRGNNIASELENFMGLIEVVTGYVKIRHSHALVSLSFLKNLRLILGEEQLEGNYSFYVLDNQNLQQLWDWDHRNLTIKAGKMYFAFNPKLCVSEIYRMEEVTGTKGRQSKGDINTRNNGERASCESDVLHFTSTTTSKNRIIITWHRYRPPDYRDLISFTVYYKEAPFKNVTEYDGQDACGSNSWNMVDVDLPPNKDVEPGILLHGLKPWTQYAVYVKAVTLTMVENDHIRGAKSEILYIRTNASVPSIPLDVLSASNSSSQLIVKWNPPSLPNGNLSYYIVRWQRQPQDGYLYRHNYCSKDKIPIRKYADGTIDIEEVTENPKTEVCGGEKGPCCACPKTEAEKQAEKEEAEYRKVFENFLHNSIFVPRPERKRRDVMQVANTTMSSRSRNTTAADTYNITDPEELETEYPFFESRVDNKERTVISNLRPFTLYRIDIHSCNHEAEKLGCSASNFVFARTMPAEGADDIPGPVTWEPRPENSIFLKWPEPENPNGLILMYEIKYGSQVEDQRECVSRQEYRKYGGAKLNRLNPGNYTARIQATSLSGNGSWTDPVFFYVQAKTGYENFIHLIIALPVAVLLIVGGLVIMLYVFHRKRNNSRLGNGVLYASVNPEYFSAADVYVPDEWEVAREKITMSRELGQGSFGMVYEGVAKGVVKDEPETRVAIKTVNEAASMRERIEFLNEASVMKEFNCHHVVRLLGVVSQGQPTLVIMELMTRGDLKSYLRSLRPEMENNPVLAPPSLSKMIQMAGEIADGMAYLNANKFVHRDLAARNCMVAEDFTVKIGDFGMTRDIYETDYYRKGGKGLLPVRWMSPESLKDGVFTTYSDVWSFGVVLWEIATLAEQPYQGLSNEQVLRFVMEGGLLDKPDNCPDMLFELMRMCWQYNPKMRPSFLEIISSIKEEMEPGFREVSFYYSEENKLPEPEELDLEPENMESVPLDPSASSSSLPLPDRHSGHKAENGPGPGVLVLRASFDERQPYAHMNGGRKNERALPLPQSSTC

T2 sequence (P17936 28-291 limits assumed): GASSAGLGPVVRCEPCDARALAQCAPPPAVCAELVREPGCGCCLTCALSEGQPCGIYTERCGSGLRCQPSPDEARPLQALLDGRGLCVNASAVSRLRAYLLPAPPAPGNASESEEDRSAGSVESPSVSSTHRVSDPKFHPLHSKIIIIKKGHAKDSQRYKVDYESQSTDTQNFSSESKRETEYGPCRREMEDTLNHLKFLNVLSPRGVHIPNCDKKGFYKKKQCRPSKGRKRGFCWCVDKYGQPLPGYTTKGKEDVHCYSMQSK

Row | Binder | koff [1] | kon [1] | KD(mutant)/KD(IGF-I) [2] | KD(mutant)/KD(IGF-I) [3] | KIRA (kinase receptor activation assay) EC50 [4]
1 | E3A/F49A IGF-I (soluble, purified double mutant) (ligand) not shown | 0.00133 s⁻¹ | 74000 M⁻¹ s⁻¹ | – | – | –
2 | F16A/F49A IGF-I (soluble double mutant) (ligand) not shown | – | – | 65.6 fold | – | –
3 | F49A IGF-I (soluble, purified) (ligand, Made on the wild-type template pBKIGF2B-f1-ori; also called F49A IGF variant) not shown | – | – | 4.2 fold | 70 fold | 0.02 µg/mL
